Results as given in PubChem BioAssay AID463173 (ICCB-Longwood Screening Facility, Harvard Medical School, 2010).
About 1,700 (3.3%) of roughly 52,000 compounds were called active. No stated cut-off is given here; in the data, active means survival mostly below about 52% (no sharp cut-off); inactive means mostly above about 56%. The list shows a part of the results.

Test system: Wild type
Experiment: S. aureus survival, RN4220 and DeltatarO strains – OD600, teichoic acid synthesis inhibitors, primary screen (AID 463173)
Details: S. aureus RN4220 wild type/DeltatarO growth, OD600, 18 h, active compounds read low, screened at 18.75 µg/mL (by protocol)

`CN(c1ccccc1C(=O)NCc1ccco1)S(C)(=O)=O` was tested. Which survival did it give?
The survival was inactive: 102%.

For `O=C(Cn1ccn(-c2ccc(F)c(F)c2)c(=O)c1=O)NCCc1ccccc1`, which survival is on record?
Its survival is inactive: 89%.

Which survival does the source give for `COc1ccc(Br)cc1CNC(=O)c1ccc2c(c1)nc1n2CCC(C)C1` (stereo not drawn) here?
Its survival is inactive: 70%.

How did the survival turn out when `CN(C)CCN1C(=O)C2C3C=CC(C3)C2C1=O` (stereo not drawn) was run?
The survival was inactive: 116%.

How did the survival turn out when `CCCCNc1nc(Oc2ccc(=O)n(C)n2)nc(N2CCOCC2)n1` was run?
The survival was inactive: 88%.

`CC(=O)c1cccc(NC(=O)CCc2c(C)nc3c(c(C)nn3-c3ccccc3)c2C)c1` was tested. Which survival did it give?
Its survival is inactive: 79%.

With `Cc1cc(C)cc(NC(=O)c2cc(S(=O)(=O)N3CCC(C)CC3)cn2C)c1` as the molecule, how does the survival read?
The survival was inactive: 79%.

`COc1ccc(C(=O)c2c(N)c(-c3nc(-c4ccc(OC)cc4)cs3)c3ccccn23)cc1` was tested. Which survival did it give?
Its survival is inactive: 98%.

How did the survival turn out when `Cc1cc(C)c2c(=O)cc(C(=O)Nc3c(C)n(C)n(-c4ccccc4)c3=O)oc2c1` was run?
The survival was inactive: 94%.

`CCN(CC)C(=O)N1CCN(C(=O)N(CC)CC)CC1` was tested. Which survival did it give?
Its survival is inactive: 110%.

For `O=C(CCC1N=C2c3ccccc3N=C(SCc3cccc(Cl)c3)N2C1=O)N1CCN(c2ccccc2)CC1` (stereo not drawn), which survival is on record?
The survival was inactive: 59%.

`CCOc1ccc(-c2cc3c(=O)n(CC(=O)Nc4cc(F)ccc4C)ccn3n2)cc1` was tested. Which survival did it give?
Its survival is inactive: 68%.

How did the survival turn out when `CCn1nc(-c2ccccc2)c(-c2ccccc2)c(C(=O)Nc2ccccc2C#N)c1=O` was run?
The survival was inactive: 87%.

Which survival does the source give for `COc1cc2[nH]c(=O)n(CCC(=O)N3CCN(c4ccc(Cl)cc4)CC3)c(=O)c2cc1OC` here?
Its survival is inactive: 93%.

How did the survival turn out when `Cc1cc(C)c(/C=C/c2onc(C)c2S(=O)(=O)N2CCC(C(=O)NCc3ccccc3Cl)CC2)c(C)c1` was run?
The survival was inactive: 72%.

`O=S(=O)(Cc1ccccc1)NCc1ccco1` was tested. Which survival did it give?
Its survival is inactive: 100%.

`CCS(=O)(=O)N1CCN(Cc2nc3sc4c(c3c(=O)[nH]2)CCC(C(C)(C)C)C4)CC1` (stereo not drawn) was tested. Which survival did it give?
The survival was inactive: 104%.

`Cc1csc2nc(COc3ccc(NC(=O)COc4ccccc4)cc3)cc(=O)n12` was tested. Which survival did it give?
The survival was inactive: 93%.

`CCOC(=O)C1CCN(C(=O)Cn2ncc3c4ccccc4n(Cc4ccc(F)cc4)c3c2=O)CC1` was tested. Which survival did it give?
Its survival is inactive: 80%.

`COc1ccc(S(=O)(=O)c2c(O)c3ccc(C(=O)NCc4ccc(Cl)cc4)cc3[nH]c2=O)cc1` was tested. Which survival did it give?
The survival was inactive: 90%.

`CCN(Cc1ccccc1)C(=O)Cn1c(=O)n(-c2cccc(C)c2)c(=O)c2c1c1cc(C)ccc1n2C` was tested. Which survival did it give?
The survival was inactive: 74%.

`Cc1ccc2oc3c(c(=O)c2c1)C(c1ccc([N+](=O)[O-])cc1)N(CCCN1CCOCC1)C3=O` (stereo not drawn) was tested. Which survival did it give?
Its survival is inactive: 84%.

How did the survival turn out when `C=CCc1ccccc1OCc1nc2ccccc2n1CC` was run?
The survival was inactive: 76%.

`COc1ccc(OCC(O)CN(Cc2ccccc2)Cc2ccccc2)cc1` (stereo not drawn) was tested. Which survival did it give?
The survival was inactive: 120%.

With `CC(C)(C)C(=O)Cn1c(=O)n(-c2ccccc2)c(=O)c2c3c(sc21)CCC3` as the molecule, how does the survival read?
The survival was inactive: 85%.

`Cc1ccc(NC(=O)CN2C(=O)COc3ccc(S(=O)(=O)NC4CCCC4)cc32)cc1Cl` was tested. Which survival did it give?
The survival was inactive: 66%.

For `Cc1ccccc1OCC(=O)NCCN1CCCC1`, which survival is on record?
Its survival is inactive: 113%.

With `O=C(CN1C(=O)c2cccnc2Oc2ccc(Cl)cc21)NCCc1ccccc1` as the molecule, how does the survival read?
The survival was inactive: 66%.

With `Cc1cc(NC(=O)CSc2ncc(C(=O)Nc3ccc(Cl)cc3)c(=O)n2C)no1` as the molecule, how does the survival read?
Its survival is inactive: 78%.

`CCCCNc1ccc(-c2nc(-c3ccco3)no2)cc1[N+](=O)[O-]` was tested. Which survival did it give?
Its survival is inactive: 86%.

`CCOC(=O)c1c(-c2ccc(C)cc2)csc1NC(=O)c1cc(-c2ccc(C)c(F)c2)on1` was tested. Which survival did it give?
The survival was inactive: 83%.

Which survival does the source give for `CCC(CC)C(=O)Nc1ccc2nc(SCC(=O)N3CCc4ccccc43)sc2c1` here?
Its survival is inactive: 108%.

With `Cc1ccc(C(=O)N2CC(=O)NC(=O)C2)cc1` as the molecule, how does the survival read?
Its survival is inactive: 119%.

Which survival does the source give for `Cc1ccc(CNC(=O)CN(c2cccc(C)c2C)S(=O)(=O)c2ccccc2)cc1` here?
Its survival is inactive: 90%.

With `Cc1cccc(N2CCN(S(=O)(=O)c3cc(Cl)ccc3Cl)CC2)c1C` as the molecule, how does the survival read?
The survival was inactive: 102%.

For `CC(=O)c1cccc(NC(=O)C2CCCN(C(=O)c3cnn(-c4ccccc4)c3-n3cccc3)C2)c1` (stereo not drawn), which survival is on record?
The survival was inactive: 123%.

With `O=C(CSc1nnnn1C1CCCC1)c1ccc2c(c1)OCCO2` as the molecule, how does the survival read?
The survival was inactive: 102%.

For `Cn1c2ccccc2c2cnn(CC(=O)N3CCN(c4cccc(C(F)(F)F)c4)CC3)c(=O)c21`, which survival is on record?
Its survival is inactive: 85%.

How did the survival turn out when `CCOc1ccc(C(=O)Nc2cccc(NC(=O)c3ccc(C(C)(C)C)cc3)c2)cc1Br` was run?
The survival was inactive: 93%.

How did the survival turn out when `O=C(c1ccc2c(c1)N(Cc1ccc(F)cc1)C(=O)c1ccccc1S2(=O)=O)N1CCN(Cc2ccccc2)CC1` was run?
Its survival is inactive: 96%.

How did the survival turn out when `COc1ccc(-c2nc(SCC(=O)Nc3ccc4c(c3)OCCO4)c(-c3ccc(F)cc3)[nH]2)cc1OC` was run?
The survival was inactive: 62%.

With `COc1ccc(CC(=O)NCc2ccc3c(c2)CCN3C(C)=O)cc1` as the molecule, how does the survival read?
The survival was inactive: 72%.

With `CC(C)CC(=O)n1nc(-c2cccnc2)nc1NCc1ccc(F)cc1` as the molecule, how does the survival read?
Its survival is inactive: 108%.

Which survival does the source give for `CCc1cccc2c(C#N)cn(CC(=O)N(CC)CC)c12` here?
Its survival is inactive: 102%.

With `Cc1ccc(NC(=O)CCCn2c(=O)c3cccn3c3ccccc32)cc1C` as the molecule, how does the survival read?
The survival was inactive: 77%.

How did the survival turn out when `COCCCNC(=O)c1ccc(-n2c(-c3ccccc3)cc3c2CCCC3)cc1` was run?
The survival was inactive: 83%.

How did the survival turn out when `COc1cccc(-c2nnc(SCC(=O)N3CCC(C)CC3)o2)c1` was run?
The survival was inactive: 63%.

How did the survival turn out when `O=C(OCc1cc(=O)n2nc(C3CCCCC3)sc2n1)c1ccccc1Cl` was run?
Its survival is inactive: 59%.

For `Cc1cc(C)n(-c2nc3ccccc3nc2Nc2ccc(Cl)c(C(=O)OC(C)C)c2)n1`, which survival is on record?
The survival was inactive: 84%.

`CCN(CC)C(=O)CSc1nc2ccccc2cc1C` was tested. Which survival did it give?
The survival was inactive: 96%.

Which survival does the source give for `COc1ccc(OCC(=O)OCc2cc(=O)n3nc(-c4cccs4)sc3n2)cc1` here?
Its survival is inactive: 87%.

`Cc1ccc(CNC(=O)CCc2c(C)nc3nc(C)nn3c2C)cc1` was tested. Which survival did it give?
Its survival is inactive: 120%.

Which survival does the source give for `Cc1ccc(OCC(=O)Nc2cccc(OCc3cc(=O)n4cccc(C)c4n3)c2)cc1C` here?
The survival was inactive: 124%.

With `Cc1ccc(CCNC(=O)CCCn2c(=O)c3ccccc3n(Cc3ccccc3C#N)c2=O)cc1` as the molecule, how does the survival read?
The survival was inactive: 98%.

With `CCn1cc2c(n1)-c1c(oc(C(=O)Nc3cccc(C)c3C)c1C)CC2` as the molecule, how does the survival read?
Its survival is inactive: 114%.

With `Cc1ccc(Cl)cc1NC(=O)Cn1c(=O)n(Cc2ccccc2)c(=O)c2oc3ccccc3c21` as the molecule, how does the survival read?
The survival was inactive: 83%.

With `Cc1cc(C)cc(NC(=O)CSc2oc(-c3ccccc3)nc2S(=O)(=O)c2ccccc2)c1` as the molecule, how does the survival read?
Its survival is inactive: 140%.

How did the survival turn out when `CCc1ccc(O)c(C(=O)c2cnc3cc(-c4ccc(C)cc4)nn3c2)c1` was run?
Its survival is inactive: 66%.

Which survival does the source give for `N#Cc1c(C(F)(F)F)cc(-c2cccs2)nc1SCC(=O)Nc1ccccc1F` here?
The survival was inactive: 136%.

For `CCn1cc(S(=O)(=O)c2ccccc2)c(=O)c2cc(F)c(N3CCCC3)cc21`, which survival is on record?
The survival was inactive: 153%.

How did the survival turn out when `Cc1cc(C)cc(NS(=O)(=O)c2ccc3[nH]cc(C(=O)NC4CCCCC4)c(=O)c3c2)c1` was run?
Its survival is inactive: 27%.

With `CCN1CC=C2C(C#N)=C(N)C(C#N)(C#N)C(C)C2C1` (stereo not drawn) as the molecule, how does the survival read?
The survival was inactive: 99%.

For `CCOc1ccc(-c2cc(C(=O)NCc3ccccc3Cl)c3ccccc3n2)cc1`, which survival is on record?
The survival was inactive: 70%.

With `COc1cc(OC)c(OC)cc1/C=C/c1nc2cc3ccccc3cc2c(=O)n1-c1ccc(F)c(Cl)c1` as the molecule, how does the survival read?
The survival was inactive: 85%.

`CCc1c(C)nc(SCc2nc(-c3ccccc3)no2)[nH]c1=O` was tested. Which survival did it give?
Its survival is inactive: 118%.

With `O=C(c1cc(-c2ccccc2O)on1)N1CCCCC1` as the molecule, how does the survival read?
Its survival is inactive: 68%.

How did the survival turn out when `O=S(=O)(c1ccc2c(c1)Cc1ccccc1-2)N1CCOCC1` was run?
Its survival is inactive: 114%.

For `CCN(CC)C(=O)c1sc2c(c1C)c(=O)n(CCc1ccccc1)c(=O)n2Cc1ccc(F)cc1Cl`, which survival is on record?
Its survival is inactive: 70%.

How did the survival turn out when `CNS(=O)(=O)c1ccccc1C(=O)N/N=C/c1ccc(OC)c(OC)c1` was run?
The survival was inactive: 102%.

How did the survival turn out when `O=C(c1ccc2c(c1)N(Cc1ccccc1F)C(=O)c1ccccc1S2(=O)=O)N1CCN(c2ccccc2F)CC1` was run?
The survival was inactive: 92%.

With `COc1ccc2cc(-c3nc(Cl)c4c5c(sc4n3)CC(C)CC5)c(=O)oc2c1` (stereo not drawn) as the molecule, how does the survival read?
Its survival is inactive: 78%.

With `O=C(Cn1c(=O)n(-c2cccc(Cl)c2)c(=O)c2sc3ccccc3c21)NC1CCCCC1` as the molecule, how does the survival read?
The survival was inactive: 136%.

How did the survival turn out when `Cc1ccc(OCC(=O)Nc2cccc(-c3nc4ccccc4o3)c2C)cc1C` was run?
Its survival is inactive: 79%.

Which survival does the source give for `O=C(c1cc2sccc2n1Cc1ccccc1)N1CCN(Cc2ccc3c(c2)OCO3)CC1` here?
The survival was inactive: 102%.

For `Cc1ccc(/C=C2\SC(=O)NC2=S)o1`, which survival is on record?
The survival was inactive: 56%.

Which survival does the source give for `COc1ccccc1NC(=O)c1c(NC(=O)COc2ccccc2)sc2c1CCCCC2` here?
The survival was inactive: 71%.

`CNC(=O)C1CCC(Cn2c(=O)c3sccc3n(CC(=O)NCc3ccc(OC)cc3)c2=O)CC1` (stereo not drawn) was tested. Which survival did it give?
Its survival is inactive: 131%.

How did the survival turn out when `O=C(c1ccccc1)c1ccc2nc(-c3ccco3)c(-c3ccco3)nc2c1` was run?
The survival was inactive: 51%.

How did the survival turn out when `O=C(CSCc1ccc(F)cc1)N1CCN(c2ccc(Cl)cc2)CC1` was run?
The survival was inactive: 69%.

`Clc1ccc(CN2CCC(CNc3ncnc4onc(-c5ccc(Cl)cc5)c34)CC2)cc1` was tested. Which survival did it give?
Its survival is inactive: 31%.

For `COc1ccc(C2=C/C(=C/c3ccco3)C(=O)O2)cc1`, which survival is on record?
The survival was inactive: 117%.

`COc1ccc(-c2nc(CSCC(=O)NCCc3ccccc3)c(C)o2)cc1` was tested. Which survival did it give?
Its survival is inactive: 95%.

Which survival does the source give for `CCc1ccc(-n2c(SCc3ccccc3Cl)nc3[nH]ncc3c2=O)cc1` here?
Its survival is inactive: 135%.

Which survival does the source give for `CN(Cc1ccccc1)c1ccc(-c2nc(-c3ccccn3)no2)cc1[N+](=O)[O-]` here?
The survival was inactive: 67%.

`O=C(COC(=O)c1ccco1)Nc1cccc2ccccc12` was tested. Which survival did it give?
The survival was inactive: 113%.

For `COc1cccc(N2CCN(C(=O)c3cc4cc5cc(C)ccc5nc4s3)CC2)c1`, which survival is on record?
The survival was inactive: 79%.

With `CCn1c(CN2CCC(C)CC2)nc2cc(NC(=O)COc3ccc(Cl)c(C)c3)ccc21` as the molecule, how does the survival read?
Its survival is inactive: 61%.

For `CC(C)C1Oc2ccccc2N(CC(=O)N(C)C2CCCCC2)C1=O` (stereo not drawn), which survival is on record?
Its survival is inactive: 112%.
